The subject of this experiment is primary human hepatic stellate cells (donor 1). Nature of the experiment: scaled lipid accumulation score (0 = DMSO-like, 1 = nortriptyline-like); higher = stronger HSC inactivation (lipid re-accumulation), active = hit call of the paper. Conditions: 48 h.
The mark [1] stands for this setting: library stock concentration: 10 mM.
[2] abbreviates: library stock concentration: 1 mM.
Setting [3] is: library stock concentration: 3.33 mM.

We go through 57 compounds from the supplement of paper PMC9135407.

Where “and” joins values, the source holds several entries; their conditions need not be identical. Equal values may be shown once. Where a name gives a salt, the structure may show the parent alone. In all, about 5,800 compounds went through this assay and about 620 (11%) showed activity.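 Rule for the calls: active = score above a cut-off or among the top three wells of a plate; in these data no inactive exceeds 0.85.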 This is a selection; strong and weak results do not stand in their true shares. Bounds are passed on as bounds.

As for `CC(C)=CC[C@@H](O)C1=CC(=O)c2c(O)ccc(O)c2C1=O` [Shikonin], the “scaled lipid accumulation score” value (library stock concentration: 6.9 mM) was inactive: 0.554 and the “scaled lipid accumulation score” value (library stock concentration: 17.3 mM) was inactive: ≤ -0.012. `NC(=O)c1cc[n+](CC2=C(C(=O)[O-])N3C(=O)[C@@H](NC(=O)[C@@H](c4ccccc4)S(=O)(=O)O)[C@H]3SC2)cc1` [Cefsulodin sodium salt]: the “scaled lipid accumulation score” value was inactive: ≤ 0. With `NC(=O)C1=CN(C2OC(COP(=O)(O)OP(=O)(O)OC[C@H]3O[C@@H](n4cnc5c(N)ncnc54)C(OP(=O)(O)O)[C@H]3O)C(O)C2O)C=CC1` (some centres undefined) [NADPH tetrasodium], the “scaled lipid accumulation score” value under setting [1] was inactive: ≤ -0.055. `Cc1ccc(O)c(N=Nc2ccccc2)n1`: the “scaled lipid accumulation score” value under setting [1] was inactive: ≤ 0 and inactive: ≤ -0.006. Turning to `C[C@]1(OC(=O)/C=C/c2ccccc2)C[C@@H](O)[C@]2(O)C=CO[C@@H](O[C@@H]3O[C@H](CO)[C@@H](O)[C@H](O)[C@H]3O)[C@@H]21` [Harpagoside], the “scaled lipid accumulation score” value is inactive: ≤ 0. Take `Cc1c(C)c2c(c(C)c1O)CCC(C)(COc1ccc(CC3SC(=O)NC3=O)cc1)O2` (centres undefined) [Troglitazone]: the “scaled lipid accumulation score” value by setting is: under setting [2], inactive: ≤ 0; (library stock concentration: 4.5 mM) inactive: 0.031 and inactive: ≤ 0.

With `C[N+]1(C)[C@@H]2CC[C@H]1C[C@@H](OC(=O)C(O)c1ccccc1)C2` (some centres undefined) [Homatropine Methylbromide], the “scaled lipid accumulation score” value runs as follows: under setting [3], inactive: ≤ 0; under setting [1], inactive: ≤ -0.001. Consider `C[N+]1(C)[C@@H]2CC[C@H]1C[C@@H](OC(=O)C(O)c1ccccc1)C2` (some centres undefined) [Homatropine methylbromide], for which the “scaled lipid accumulation score” value runs as follows: (library stock concentration: 5.4 mM) inactive: ≤ -0.001; under setting [1], inactive: 0.054. As for `CCCCCCCCCC(=O)CC(=O)N[C@H]1CCOC1=O` [N-3-oxo-dodecanoyl-L-Homoserine lactone], the “scaled lipid accumulation score” value under setting [2] is inactive: 0.017. For the compound `COC(c1ccccc1)(c1ccccc1)[C@H](Oc1nc(C)cc(C)n1)C(=O)O` [Ambrisentan], the “scaled lipid accumulation score” value by setting is: under setting [3], inactive: 0.04; under setting [1], inactive: ≤ 0.

Consider `C=Cc1c(C)c2cc3[nH]c(cc4nc(cc5nc(cc1[nH]2)C(C)=C5CCC(=O)O)C(CCC(=O)O)=C4C)c(C)c3C=C` [Protoporphyrin IX disodium], for which, under setting [1], the “scaled lipid accumulation score” value was inactive: 0.335. For the compound `COC(=O)C1=C(C)NC(C)=C(C(=O)OCCN2CCN(C(c3ccccc3)c3ccccc3)CC2)C1c1cccc([N+](=O)[O-])c1` (centres undefined) [Manidipine 2HCl], the “scaled lipid accumulation score” value is inactive: ≤ 0 under setting [3] and inactive: ≤ 0 under setting [1]. As to `COC(=O)C1=C(C)NC(C)=C(C(=O)OCCN2CCN(C(c3ccccc3)c3ccccc3)CC2)C1c1cccc([N+](=O)[O-])c1` (centres undefined), the “scaled lipid accumulation score” value under setting [1] was inactive: 0.339. On to `COC(=O)C1=C(C)NC(C)=C(C(=O)OCCN2CCN(C(c3ccccc3)c3ccccc3)CC2)C1c1cccc([N+](=O)[O-])c1` (centres undefined) [Manidipine], for which the “scaled lipid accumulation score” value under setting [3] is inactive: 0.048 and the “scaled lipid accumulation score” value under setting [1] is inactive: 0.084. As for `CC(C)N(C[C@H]1O[C@@H](n2cnc3c(N)ncnc32)[C@H](O)[C@@H]1O)[C@H]1C[C@@H](CCc2nc3cc(C(C)(C)C)ccc3[nH]2)C1`, the “scaled lipid accumulation score” value by setting is: under setting [3], inactive: ≤ 0; under setting [1], inactive: 0.467. As to `Cc1cc(Nc2nc(-c3ccccc3)nc3ccccc23)n[nH]1` [GSK-3 Inhibitor XIII], under setting [3], the “scaled lipid accumulation score” value is inactive: ≤ 0. In the case of `CN(C)C/C=C(/c1ccc(Br)cc1)c1cccnc1.Cl.Cl` [Zimelidine dihydrochloride], the “scaled lipid accumulation score” value under setting [1] was active: 0.893. Regarding `O=C(/C=C/c1ccc2ccccc2n1)c1ccncc1`, the “scaled lipid accumulation score” value reads like this: under setting [3], inactive: 0.681; under setting [1], inactive: 0.429.

On to `CCCCCCCC/C=C\CCCCCCCCCCCCCC(=O)NCCS(=O)(=O)O` [N-Nervonoyl Taurine], for which, under setting [2], the “scaled lipid accumulation score” value was inactive: 0.028. As for `Cc1cc(C(N)=O)ccc1-n1c(CCC(=O)O)ccc1-c1ccc(-n2ccnc2)cc1`, the “scaled lipid accumulation score” value was inactive: ≤ -0.009 under setting [3] and inactive: ≤ 0 under setting [1]. For the compound `Cl.Cl.c1ccc2c(NCCCCCCCNc3c4c(nc5ccccc35)CCCC4)c3c(nc2c1)CCCC3` [bis(7)-Tacrine], under setting [2], the “scaled lipid accumulation score” value was active: 1.11. Consider `COC(=O)[C@H]1[C@H]2C[C@H]3c4[nH]c5ccccc5c4CCN3C[C@@H]2CC[C@@H]1O` [Corynanthine hydrochloride], for which the “scaled lipid accumulation score” value is inactive: ≤ 0. For the compound `COc1ccc(/C=C/c2nc(NCCCN(C)C)c3ccccc3n2)cc1`, the “scaled lipid accumulation score” value under setting [1] was inactive: 0.387. Take `C[C@H]1COc2c(C3(N)CC3)c(F)cc3c(=O)c(C(=O)O)cn1c23`: the “scaled lipid accumulation score” value under setting [1] was inactive: 0.025 and inactive: ≤ 0. Take `C[C@H]1COc2c(C3(N)CC3)c(F)cc3c(=O)c(C(=O)O)cn1c23` [Pazufloxacin]: the “scaled lipid accumulation score” value (library stock concentration: 6.3 mM) is inactive: ≤ 0. Consider `CC(C(=O)O)c1ccc2c(c1)Cc1cccnc1O2` (centres undefined) [Pranoprofen], for which the “scaled lipid accumulation score” value runs as follows: under setting [3], inactive: ≤ 0; (library stock concentration: 7.8 mM) inactive: ≤ 0; under setting [1], inactive: ≤ 0.

Take `Cc1cc(C(C)(C)C)c(O)c(C)c1CC1=NCCN1` [Oxymetazoline HCl]: the “scaled lipid accumulation score” value under setting [3] was inactive: ≤ 0, the “scaled lipid accumulation score” value (library stock concentration: 7.7 mM) was inactive: 0.147 and the “scaled lipid accumulation score” value under setting [1] was inactive: 0.036. For `Cc1cc(C(C)(C)C)c(O)c(C)c1CC1=NCCN1` [Oxymetazoline hydrochloride], the “scaled lipid accumulation score” value is inactive: 0.182. Besides, under “library stock concentration: 6.7 mM”, the “scaled lipid accumulation score” value is inactive: 0.153. For the same compound, the “scaled lipid accumulation score” value under setting [1] was inactive: 0.218 and inactive: 0.402 and inactive: 0.173. Take `NC(Cc1ccc(Cl)cc1)C(=O)O` (centres undefined) [(?)-p-Chlorophenylalanine]: under setting [1], the “scaled lipid accumulation score” value is inactive: ≤ 0.

Take `CN(C)CCCN1c2ccccc2Sc2ccccc21` [Promazine hydrochloride]: the “scaled lipid accumulation score” value was inactive: 0.365. Under “library stock concentration: 6.2 mM”, the “scaled lipid accumulation score” value is inactive: 0.834. For the same compound, the “scaled lipid accumulation score” value under setting [1] was inactive: 0.324. On to `NS(=O)(=O)c1cc(C(=O)O)cc(N2CCCC2)c1Oc1ccccc1` [Piretanide], for which the “scaled lipid accumulation score” value was inactive: 0.015. `O=C[C@H](O)[C@@H](O)[C@H](O)CO` [Xylose]: the “scaled lipid accumulation score” value is inactive: ≤ 0 under setting [3] and inactive: 0.028 under setting [1]. Turning to `CC(=O)O[C@]1(C(C)=O)CC[C@H]2[C@@H]3C[C@H](C)C4=CC(=O)C=C[C@]4(C)[C@@]3(F)[C@@H](O)C[C@@]21C` [Fluorometholone Acetate], the “scaled lipid accumulation score” value runs as follows: under setting [3], inactive: ≤ 0; under setting [1], inactive: ≤ -0.001. As for `CCCCCCCCCCCCCCCCOC[C@H](COP(=O)([O-])OCC[N+](C)(C)C)SC(C)=O` [2-thio-PAF], the “scaled lipid accumulation score” value under setting [2] was inactive: ≤ 0.

As to `COc1ccc([C@@H]2CC(=O)c3c(O)cc(O[C@@H]4O[C@H](CO[C@@H]5O[C@@H](C)[C@H](O)[C@@H](O)[C@H]5O)[C@@H](O)[C@H](O)[C@H]4O)cc3O2)cc1O` [Hesperidin], the “scaled lipid accumulation score” value was inactive: ≤ 0. Also, the “scaled lipid accumulation score” value under setting [3] is inactive: 0.012. For the same compound, the “scaled lipid accumulation score” value under setting [1] is inactive: ≤ 0. Regarding `O=c1cc(N2CCOCC2)oc2c(-c3cccc4c3sc3ccccc34)cccc12`, the “scaled lipid accumulation score” value by setting is: (library stock concentration: 80 uM) inactive: ≤ 0; (library stock concentration: 400 uM) inactive: ≤ 0; (library stock concentration: 2 mM) inactive: ≤ 0; under setting [3], inactive: ≤ 0; under setting [1], inactive: ≤ 0. As for `CC(C)(C(=O)O)c1ccc(C(O)CCCN2CCC(C(O)(c3ccccc3)c3ccccc3)CC2)cc1` (centres undefined) [Fexofenadine hydrochloride], the “scaled lipid accumulation score” value under setting [1] was inactive: ≤ -0.07 and inactive: 0.008. `CC(C)(C(=O)O)c1ccc(C(O)CCCN2CCC(C(O)(c3ccccc3)c3ccccc3)CC2)cc1` (centres undefined): under setting [1], the “scaled lipid accumulation score” value is inactive: ≤ 0.

On to `CC(C)(C(=O)O)c1ccc(C(O)CCCN2CCC(C(O)(c3ccccc3)c3ccccc3)CC2)cc1` (centres undefined) [Fexofenadine HCl], for which the “scaled lipid accumulation score” value was inactive: ≤ 0. Moreover, the “scaled lipid accumulation score” value under setting [3] is inactive: ≤ 0. Also, the “scaled lipid accumulation score” value under setting [1] was inactive: 0.057. For `CC(N)=NCCCC[C@H](N)C(=O)O` [L-N6-(1-Iminoethyl)lysine hydrochloride], the “scaled lipid accumulation score” value under setting [1] is inactive: ≤ -0.055. Turning to `Cn1cc(-c2ccc3ncc(Cc4ccc5ncccc5c4)n3n2)cn1`, the “scaled lipid accumulation score” value by setting is: under setting [3], inactive: ≤ 0; under setting [1], inactive: ≤ 0. As for `CN1C(C)(C)CCCC1(C)C` [Pempidine tartrate], the “scaled lipid accumulation score” value is inactive: ≤ 0. For the same compound, the “scaled lipid accumulation score” value under setting [1] is inactive: 0.064. In the case of `CN(C)CCCN1c2ccccc2CCc2ccccc21.Cl` [Imipramine hydrochloride], under setting [1], the “scaled lipid accumulation score” value is active: 1.1. Consider `CC1(C)Oc2ccc(C#N)cc2[C@@H](N2CCCC2=O)[C@@H]1O` [Levcromakalim], for which, under setting [1], the “scaled lipid accumulation score” value is inactive: ≤ 0. Regarding `Cc1onc(-c2c(Cl)cccc2Cl)c1C(=O)N[C@@H]1C(=O)N2[C@@H]1SC(C)(C)[C@@H]2C(=O)O` [Dicloxacillin Sodium], the “scaled lipid accumulation score” value was inactive: ≤ 0 under setting [3] and inactive: 0.136 under setting [1].

Consider `Cc1onc(-c2c(Cl)cccc2Cl)c1C(=O)N[C@@H]1C(=O)N2[C@@H]1SC(C)(C)[C@@H]2C(=O)O` [Dicloxacillin sodium salt], for which the “scaled lipid accumulation score” value was inactive: ≤ 0. As for `Cc1onc(-c2c(Cl)cccc2Cl)c1C(=O)N[C@@H]1C(=O)N2[C@@H]1SC(C)(C)[C@@H]2C(=O)O`, under setting [1], the “scaled lipid accumulation score” value is inactive: ≤ 0.

Regarding `Cc1onc(-c2c(Cl)cccc2Cl)c1C(=O)N[C@@H]1C(=O)N2[C@@H]1SC(C)(C)[C@@H]2C(=O)O` [Dicloxacillin sodium], under setting [1], the “scaled lipid accumulation score” value was inactive: ≤ 0. For `Cc1cc(NC(=O)Nc2ccc(N(C)C)cc2)c2cc(F)cc(F)c2n1`, the “scaled lipid accumulation score” value under setting [3] is inactive: 0.007; the “scaled lipid accumulation score” value under setting [1] is inactive: 0.001 and inactive: ≤ -0.006. `CCCCC[C@H](O)C/C=C1/C(=O)C[C@H](O)[C@@H]1C/C=C\CCCC(=O)O` [.DELTA.12-Prostaglandin D2]: the “scaled lipid accumulation score” value under setting [2] was inactive: ≤ 0. As for `CN(C)/N=N/c1[nH]cnc1C(N)=O` [Dacarbazine], the “scaled lipid accumulation score” value is inactive: 0.09. The “scaled lipid accumulation score” value under setting [3] is inactive: ≤ 0. The “scaled lipid accumulation score” value under setting [1] is inactive: ≤ 0. In addition, for the setting “library stock concentration: 11 mM”, the “scaled lipid accumulation score” value is inactive: ≤ 0 and inactive: 0.023.

Regarding `CCCCCCCCc1ccc(-c2ccc(C(=O)O)cc2)cc1`, under setting [1], the “scaled lipid accumulation score” value is inactive: ≤ 0 and inactive: 0.032. For the compound `CC[N+](C)(C)Cc1ccccc1Br` [Bretylium tosylate], the “scaled lipid accumulation score” value is inactive: ≤ 0. The “scaled lipid accumulation score” value (library stock concentration: 4.8 mM) was inactive: ≤ 0. Besides, the “scaled lipid accumulation score” value under setting [1] is inactive: ≤ 0. With `Cc1ccc(/C=C2\CNC/C(=C\c3ccc(C)cc3)C2=O)cc1.Cl`, the “scaled lipid accumulation score” value under setting [1] was active: 1.43. Turning to `C[N+](C)(C)CCCCCC[N+](C)(C)C` [Hexamethonium bromide], the “scaled lipid accumulation score” value under setting [1] is inactive: 0.261 and inactive: 0.089. With `C[N+](C)(C)CCCCCC[N+](C)(C)C` [Hexamethonium dibromide dihydrate], the “scaled lipid accumulation score” value was inactive: ≤ 0. Consider `C[N+](C)(C)CCCCCC[N+](C)(C)C` [Hexamethonium dichloride], for which the “scaled lipid accumulation score” value under setting [1] is inactive: ≤ -0.07.
